{"source": "PubChem BioAssay AID504339", "about": "(National Center for Advancing Translational Sciences (NCATS), 2011)", "note": "Out of some 390,000 compounds screened, about 17,000 (4.4%) were called active. This list was built around the results that the source calls inconclusive (neither active nor inactive); the mix of calls is not that of the screen. Calls come from the whole dose curve; as a rule, active = well fitted inhibition curve with a large enough effect; inconclusive = small, poorly fitted or top-dose-only effect; inactive = no such curve, though single readings can be large or run the other way. Potencies beside an inconclusive call are fits to weak or partial responses and may not hold up. % is set by controls: 0 for no effect and ±100 for the full control effect; potency is the fitted concentration of half-maximal effect; tags give direction and shape of the fitted curve."}
{"target": "Lysine-specific demethylase 4A (Homo sapiens) (UniProt O75164)", "sequence (O75164 whole entry, looked up, the tested form may be a part)": "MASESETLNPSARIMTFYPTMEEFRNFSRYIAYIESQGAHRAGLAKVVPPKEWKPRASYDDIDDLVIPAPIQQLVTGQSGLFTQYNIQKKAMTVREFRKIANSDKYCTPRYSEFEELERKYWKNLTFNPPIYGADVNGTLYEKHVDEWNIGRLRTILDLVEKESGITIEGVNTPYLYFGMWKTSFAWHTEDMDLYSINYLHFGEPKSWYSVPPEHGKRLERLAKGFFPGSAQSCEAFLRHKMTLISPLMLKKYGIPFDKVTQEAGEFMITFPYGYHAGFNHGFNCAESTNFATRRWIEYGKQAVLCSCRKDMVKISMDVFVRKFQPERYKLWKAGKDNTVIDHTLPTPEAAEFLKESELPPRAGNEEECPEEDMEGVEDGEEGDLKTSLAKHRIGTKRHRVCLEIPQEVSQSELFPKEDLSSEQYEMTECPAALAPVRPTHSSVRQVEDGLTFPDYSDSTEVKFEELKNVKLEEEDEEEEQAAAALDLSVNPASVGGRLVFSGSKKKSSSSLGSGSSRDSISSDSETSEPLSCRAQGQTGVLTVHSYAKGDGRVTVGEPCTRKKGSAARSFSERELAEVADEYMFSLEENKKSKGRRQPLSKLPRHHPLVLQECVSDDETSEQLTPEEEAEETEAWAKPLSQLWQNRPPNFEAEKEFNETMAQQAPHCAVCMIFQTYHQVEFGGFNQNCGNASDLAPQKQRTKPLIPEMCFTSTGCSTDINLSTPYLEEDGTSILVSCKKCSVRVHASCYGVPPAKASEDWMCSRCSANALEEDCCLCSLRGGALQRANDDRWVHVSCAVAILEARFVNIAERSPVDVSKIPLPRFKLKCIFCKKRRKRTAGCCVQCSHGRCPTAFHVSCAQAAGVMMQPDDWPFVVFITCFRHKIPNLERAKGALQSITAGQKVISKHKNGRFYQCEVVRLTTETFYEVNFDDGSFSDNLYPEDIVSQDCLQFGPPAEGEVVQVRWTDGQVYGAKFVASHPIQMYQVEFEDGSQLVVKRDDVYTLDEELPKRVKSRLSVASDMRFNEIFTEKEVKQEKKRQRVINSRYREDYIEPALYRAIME", "assay": "qHTS Assay for Inhibitors of JMJD2A-Tudor Domain; note: nearly all actives have a fitted effect of over 50% in size", "conditions": "AlphaScreen JMJD2A-Tudor / H3K4me3 peptide binding; activity change, negative = inhibition: at 114 µM (top of the series)"}
{"molecule": "CCN(C(=O)c1cnc(N2CCN(c3ncccn3)CC2)c2ccccc12)c1cccc(Cl)c1", "Potency": "inactive"}
{"molecule": "CCOC(=O)C1CCN(C2=C(NS(=O)(=O)c3ccc(Br)cc3)C(=O)c3ccccc3C2=O)CC1", "Potency": "active: 7.94 µM"}
{"molecule": "Cc1cc(C)cc(Nc2ccc(C(=O)O)cc2N)c1", "Potency": "inconclusive: 79.4 µM [inhibitor, single point]"}
{"molecule": "N#CC1=C(N)SC(N)=C(C#N)C1c1ccnc2ccccc12", "Potency": "active: 56.2 µM"}
{"molecule": "O=[N+]([O-])c1ccc2c(c1N1CCCCC1)=NC1(CCCCC1)[N+]=2[O-]", "Potency": "inconclusive: 39.8 µM [inhibitor, partial curve]"}
{"molecule": "O=C(NC1CCN(C(=S)NCc2ccco2)CC1)c1ccc(F)cc1", "Potency": "inconclusive: 50.1 µM [inhibitor, partial curve]"}
{"molecule": "O=C(O)c1ccc(Nc2nc(-c3ccccc3)c3cc(Br)ccc3n2)cc1", "Potency": "inconclusive: 56.2 µM [inhibitor, partial curve]"}
{"molecule": "Cc1ccc(C(=O)CCC(=O)N2CCC(C(N)=O)CC2)cc1", "Potency": "inconclusive: 39.8 µM [inhibitor, single point]"}
{"molecule": "[O-]/[N+](=C\\c1ccc(F)cc1)c1ccccc1", "Potency": "inactive"}
{"molecule": "Cc1nn2c(NCCCn3ccnc3)cc(C(C)C)nc2c1-c1ccccc1", "Potency": "inconclusive: 50.1 µM [inhibitor, partial curve]"}
{"molecule": "CCOC(=O)c1nc2cc3n(c(CC(C)C)c-2c1C)CC(C)=C3C", "Potency": "inconclusive: 63.1 µM [inhibitor, partial curve, poor fit]"}
{"molecule": "O=C(COc1ccc(Cl)cc1)NN=C1CCCCCCC1", "Potency": "inactive"}
{"molecule": "Cc1cccc(C(=O)Nc2cccc(C(=O)N/N=C/c3cccc(C)n3)c2)c1", "Potency": "inactive"}
{"molecule": "Cc1cc(C)c(-c2csc(NC(=O)C3=COCCO3)n2)c(C)c1", "Potency": "inactive"}
{"molecule": "Cc1c(NC(=O)Cc2ccc(F)cc2)cccc1-c1nc2cccnc2s1", "Potency": "inconclusive: 79.4 µM [inhibitor, partial curve]"}
{"molecule": "COc1cccc(-c2csc(N3CCN(C(=S)Nc4cccc(C)c4)CC3)n2)c1", "Potency": "inconclusive: 70.8 µM [inhibitor, partial curve, poor fit]"}
{"molecule": "Cc1noc(NS(=O)(=O)c2ccc(NC(=O)c3oc4ccc(F)cc4c3C)cc2)c1C", "Potency": "inconclusive: 56.2 µM [inhibitor, partial curve]"}
{"molecule": "CN(C)CC/C=C1/c2cc(F)ccc2Sc2ccc(Cl)cc21", "Potency": "inconclusive: 56.2 µM [inhibitor, partial curve]"}
{"molecule": "Cc1noc(/C=C/N(C)C)c1S(=O)(=O)N1CCN(c2ccccc2)CC1", "Potency": "inconclusive: 50.1 µM [inhibitor, partial curve]"}
{"molecule": "CCOC(=O)C1CC(=O)c2cc(OC)c(OC)cc2C1", "note": "(stereo unspecified)", "Potency": "inactive"}
{"molecule": "O=C(NCc1ccccn1)C(=O)NN=C1CCCCCCCCCCC1", "Potency": "inactive"}
{"molecule": "FC(F)(F)c1cccc(-n2cc(-c3ccccc3)[nH]c2=S)c1", "Potency": "inconclusive: 50.1 µM [inhibitor, partial curve]"}
{"molecule": "COc1ccc(C2Nc3ccccc3C(=O)N2CCc2ccc(Cl)cc2Cl)cc1COc1ccc(NC(C)=O)cc1", "note": "(stereo unspecified)", "Potency": "inconclusive: 89.1 µM [inhibitor, partial curve]"}
{"molecule": "COc1ccc(N=Nc2ccc(N)nc2N)cc1", "Potency": "active: 39.8 µM"}
{"molecule": "CN(C)/C=C1\\NC(=S)N(c2ccccc2)C1=O", "Potency": "active: 35.5 µM"}
{"molecule": "COCCNC(=O)C(=O)NNC(=O)CCc1ccccc1", "Potency": "inconclusive: 39.8 µM [inhibitor, single point]"}
{"molecule": "CS(=O)(=O)N(CC(=O)NCc1ccccc1Cl)C1CCCCC1", "Potency": "inactive"}
{"molecule": "O=C1CCC[C@@H]2Cc3nc4ccc(Cl)cc4cc3[C@@H]3CCN1[C@H]23", "Potency": "inactive"}
{"molecule": "COc1ccc(-c2csc(NC(=O)c3ccccc3NS(=O)(=O)c3ccc(F)c(F)c3)n2)cc1", "Potency": "active: 56.2 µM"}
{"molecule": "COc1c(C)cccc1C(=O)NCCCNC(=O)c1ccc(C)nc1", "Potency": "inactive"}
{"molecule": "Cc1ccc(-n2nnc(-c3nsc(NC(=O)c4ccccc4C)n3)c2C)cc1Cl", "Potency": "inactive"}
{"molecule": "COc1ccc(-c2c3c(=O)n(C)c(=O)n(C)c3cn2-c2cccc(N)c2)cc1", "Potency": "inconclusive: 56.2 µM [inhibitor, partial curve]"}
{"molecule": "CCOC(=O)c1ccc([N+](=O)[O-])c(CS(=O)(=O)c2ccc(Cl)cc2)c1", "Potency": "inconclusive: 56.2 µM [inhibitor, partial curve]"}
{"molecule": "CCOC(=O)CC(NC(=O)CCc1c(C)nc2c(-c3ccccc3)c(C)nn2c1C)c1ccc(C)cc1", "note": "(stereo unspecified)", "Potency": "inactive"}
{"molecule": "CCOC(=O)N1CCC(Nc2c(NCCCN(CC)c3cccc(C)c3)c(=O)c2=O)CC1", "Potency": "inconclusive: 63.1 µM [inhibitor, partial curve]"}
{"molecule": "COc1ccc(S(=O)(=O)N2CCCCC2)cc1NC(=O)c1ccc(=O)[nH]c1", "Potency": "inactive"}
{"molecule": "O=C(Nc1ccc(Cl)c(C(F)(F)F)c1)C1CCCN(S(=O)(=O)c2cccc3cccnc23)C1", "note": "(stereo unspecified)", "Potency": "inactive"}
{"molecule": "CC(C)(C)c1ccc(CSc2nc3c(c(=O)[nH]2)CCCC3)cc1", "Potency": "inactive"}
{"molecule": "COCC(C)n1c(SCC(=O)c2cc(C)n(C)c2C)nc2ccccc2c1=O", "note": "(stereo unspecified)", "Potency": "inconclusive: 56.2 µM [inhibitor, partial curve]"}
{"molecule": "COc1ccc(C(=O)NNC(=O)C(=O)Nc2ccc(C)c(Cl)c2)cc1", "Potency": "inconclusive: 12.6 µM [inhibitor, full curve]"}
{"molecule": "O=C(NCCc1ccco1)c1ccc(OCc2cn3ccccc3n2)cc1", "Potency": "inconclusive: 8.91 µM [inhibitor, full curve, poor fit]"}
{"molecule": "O=C(N/N=C/c1ccc(O)c(O)c1)c1ccc(CSc2cccc3cccnc23)cc1", "Potency": "inconclusive: 44.7 µM [inhibitor, partial curve]"}
{"molecule": "O=C(c1ccccc1)C1CCN(C(=O)C2CCC(=O)N(Cc3ccccc3F)C2)CC1", "note": "(stereo unspecified)", "Potency": "inactive"}
{"molecule": "COC(=O)[C@]1(Cc2ccccc2)N[C@H](CN(C)C(=O)c2ccc(C)cc2)[C@@H]2C(=O)N(C)C(=O)[C@@H]21", "Potency": "inactive"}
{"molecule": "O=C(Nc1cccc(Cl)c1)N1CCN2C(=O)c3ccccc3C12c1ccccc1", "note": "(stereo unspecified)", "activity change, negative = inhibition": "inactive: -34.2% [at 11.4 µM]"}
{"molecule": "CC(=O)c1ccc(N2CCN(c3ccccc3O)CC2)c([N+](=O)[O-])c1", "Potency": "inconclusive: 79.4 µM [inhibitor, partial curve]"}
{"molecule": "CC(C)(C)C1CCC(OCC(O)CN2CCN(c3ccccn3)CC2)CC1", "note": "(stereo unspecified)", "Potency": "inconclusive: 89.1 µM [inhibitor, single point]"}
{"molecule": "CCc1nc(SCC(=O)Nc2ccc(N(CC)CC)cc2)n[nH]1", "Potency": "inactive"}
{"molecule": "Cc1c(C)n(Cc2ccccc2)c2ccc(C(=O)NCCCN3CCOCC3)cc12", "Potency": "active: 50.1 µM"}
{"molecule": "CC(C)C(=O)Nc1cccc(N2CCN(CCCN3C(=O)C4CCCCN4C3=O)CC2)c1", "note": "(stereo unspecified)", "Potency": "active: 79.4 µM"}
{"molecule": "CCOc1ccc(Nc2nc(Cc3nnc(SCC(=O)O)o3)cs2)cc1", "Potency": "active: 89.1 µM"}
{"molecule": "COc1cccc(C2c3c(ncn(-c4ccc(C#N)cc4)c3=N)Oc3ccc4ccccc4c32)c1", "note": "(stereo unspecified)", "Potency": "inconclusive: 56.2 µM [inhibitor, partial curve]"}
{"molecule": "CCCN1CCC(=O)N([C@H](CSc2ccc(C)cc2)Cc2ccccc2)CC1", "Potency": "inconclusive: 79.4 µM [inhibitor, partial curve]"}
{"molecule": "COc1ccc(CCNC(=O)C2CCN(c3nc4ccccc4nc3C(F)(F)F)CC2)cc1OC", "Potency": "inactive"}
{"molecule": "CCOC(=O)c1[nH]cnc1C(=O)Nc1ccccc1", "Potency": "inconclusive: 7.08 µM [inhibitor, full curve, poor fit]"}
{"molecule": "CCC1(CC)NC(=O)N(CC(=O)Nc2ccc(C)cc2C)C1=O", "Potency": "inactive"}
{"molecule": "COc1ccc(-c2[nH]c(-c3ccc(F)cc3)nc2SCC(=O)NCc2ccco2)cc1OC", "Potency": "inactive"}
{"molecule": "CCOc1ccccc1NC(=O)NC1(C(=O)NCc2cccnc2)CCCCC1", "Potency": "inactive"}
{"molecule": "CCCCc1nc(NCCNC(=O)c2ccco2)c(C#N)c2c1CSC(C)(C)C2", "Potency": "inconclusive: 44.7 µM [inhibitor, partial curve]"}
{"molecule": "CCOC(=O)c1ccc2c(c1)N(Cc1cccc(C(F)(F)F)c1)C(=O)c1ccccc1S2(=O)=O", "Potency": "inconclusive: 89.1 µM [inhibitor, single point]"}
{"molecule": "CN(C)CC/C=C1\\c2cc(Cl)ccc2Sc2cc(F)c(F)cc21", "Potency": "inconclusive: 50.1 µM [inhibitor, partial curve]"}
{"molecule": "Cc1ccccc1NC(=O)CN1C(=O)S/C(=C\\c2cccn2-c2cccc(C(=O)O)c2)C1=O", "Potency": "active: 79.4 µM"}
{"molecule": "COc1ccc(Cn2c(=O)[nH]c3cc(C(=O)N4CCN(c5ccccc5)CC4)ccc3c2=O)cc1", "Potency": "inconclusive: 25.1 µM [inhibitor, partial curve]"}
{"molecule": "CN(C)Cc1c(C(=O)N/N=C/c2ccc(-c3ccccc3)cc2)nnn1-c1nonc1N", "Potency": "inconclusive: 15.8 µM [inhibitor, full curve, poor fit]"}
{"molecule": "COc1ccc(NC(=O)CSCC(=O)N(C)Cc2ccc3c(c2)OCCO3)cc1", "Potency": "inactive"}
{"molecule": "O=C(N/N=C/C=C/c1ccccc1)c1ccncc1", "Potency": "inconclusive: 89.1 µM [inhibitor, single point]"}
{"molecule": "CC1CCc2cc(F)cc3c(O)c(C(=O)NCC4CCCO4)c(=O)n1c23", "note": "(stereo unspecified)", "Potency": "inactive"}
{"molecule": "O=C(C1=NN[C@@H]2C(=O)N(c3cccc(C(F)(F)F)c3)C(=O)[C@H]12)c1cnccn1", "Potency": "inconclusive: 100 µM [inhibitor, single point]"}
{"molecule": "CCOC(=O)c1c(/N=C/c2cccc([N+](=O)[O-])c2O)sc2c1CCC2", "Potency": "inconclusive: 56.2 µM [inhibitor, partial curve]"}
{"molecule": "COc1ccc(OC)c(CCNc2nccn(-c3ccc(C)c(C)c3)c2=O)c1", "Potency": "active: 56.2 µM"}
{"molecule": "O=C(NCC(c1cccnc1)N1CCOCC1)C(=O)Nc1ccc(F)cc1", "note": "(stereo unspecified)", "Potency": "inconclusive: 22.4 µM [inhibitor, full curve]"}
